Data taken from patent US20170066797A1, “WITHAFERIN A ANALOGS AND USES THEREOF” (Whitehead Institute for Biomedical Research, priority 2008, published 2017).

Experiments:
WI-38 fibroblasts = assay: Detection of F-actin aggregation (phalloidin staining); format: cell-based, Human; conditions: 4 μM, 4 or 24 h, FIG. 3
Procedure: FIGS. 3A-3D. Induction of F-actin aggregation. Following incubation with test compounds for the indicated intervals, WI-38 fibroblasts were fixed and stained with fluorescently-labeled phalloidin (green signal) to visualize the actin cytoskeleton. Cells were counterstained with DAPI (blue signal) to identify their nuclei. All images were acquired using the same magnification and exposure conditions. Data are representative of two independent experiments. (A) DMSO, 24 h incubation. (B) Withaferin A, 4 h. (C) 2,3-Dihydrowithaferin A-3β-O-sulfate, 4 h. (D) 2,3-Dihydrowithaferin A-3β-O-sulfate, 24 h.
Cells were seeded in 8-well chamber slides at a density of 2×10^4 cells per well and allowed to adhere for 48 h. Compounds 1 and 2 were freshly prepared as 5 mM stock solutions in DMSO and applied to cells at a final concentration of 4 μM in RPMI culture medium supplemented with 10% fetal bovine serum, Glutamax™, and penicillin/streptomycin. Control wells were treated with an equal volume of DMSO, not exceeding 0.2% in culture media. Cells were incubated for 4 or 24 h in the continuous presence of the indicated compounds, then washed twice with PBS, fixed with 4% paraformaldehyde/PBS (pH 7.6), and permabilized with 0.1% triton-X 100/PBS. […]

[1] = test system: PC-3M (prostate) tumor cells; assay: Matrigel tumor cell invasion/migration, PC-3M; format: cell-based; conditions: 24 hours, FIG. 4
Procedure: (§1) FIG. 4. Inhibition of tumor cell invasion/migration. PC-3M (prostate) and CHP-100 (Ewing's sarcoma) tumor cells were seeded into Matrigel-coated invasion chambers and exposed to increasing concentrations of withaferin A (WA) or DMSO for 24 hours. Relative viable cell number and invasion were determined by MTT assay. Results are presented as % compared to wells exposed to DMSO alone. Results shown are representative of three independent experiments.

[2] = test system: CHP-100 (Ewing's sarcoma) tumor cells; assay: Matrigel tumor cell invasion/migration, CHP-100; format: cell-based; conditions: 24 hours, FIG. 4
Procedure: as §1

[3] = test system: Human umbilical vein endothelial cells (HUVEC); assay: Endothelial cell network (tube) formation on Matrigel; format: cell-based; conditions: 16 h, FIG. 6
Procedure: FIG. 6. […] Human umbilical vein endothelial cells (HUVEC) were seeded into Matrigel-coated wells and allowed to adhere for 1 h. Adherent cells were exposed to the indicated concentrations of withaferin A, epi-withaferin A (α-WA) or an equal volume of solvent vehicle (DMSO) for 16 h. Cells were washed 1× in PBS and fixed to visualize tube formation by light microscopy.

CHP-100 tumor xenografts = assay: Tumor vascularization (microvessel density, CD-34) in CHP-100 xenografts; format: in vivo, SCID mice; conditions: IP 7.5 mg/kg for 2 days and 3.5 mg/kg for 8 days; P value <0.01 vs DMSO, FIG. 7
Procedure: FIG. 7. […] SCID mice bearing CHP-100 tumor xenografts were treated with IP injections of DMSO (50 μl for 10 days) or withaferin A (WA) (7.5 mg/kg for 2 days and 3.5 mg/kg for 8 days) after tumor establishment. Upper panels: Microvessel density (MVD) of excised tumors from each treatment group (DMSO, left panel; WA, right panel) was visualized using formalin-fixed, paraffin-embedded material sectioned at four to five microns-thick. Samples were stained with antibody to CD-34 and detected through the use of indirect avidin-biotin-peroxidase methodology. Nuclei were counterstained with hematoxylin and sections were evaluated by light microscopy. Lower Panel: Vascular density was quantitated by light microscopy based on the methods of the Weidner research group (**P value <0.01). Unpaired Student's t-test used to calculate P values. Error bars: s.d.

Hsp72 = assay: HSF1-dependent Hsp72 induction, immunoblot in Hsf1(-) and Hsf1(+) embryo fibroblasts; format: cell-based, mouse; conditions: 2 μM overnight, FIG. 9
Procedure: FIG. 9. HSF1-dependent induction of the heat shock response. Immortalized mouse embryo fibroblasts derived from mice in which Hsf1 was knocked out [Hsf1(−)] or their wild type littermates; [Hsf1(+)] were exposed overnight to DMSO (0.2%) (lanes 1 and 4), geldanamycin (GA, 0.5 μM) (lanes 2 and 5), or withaferin A (WA) (2 μM) (lanes 3 and 6). Equal amounts of total cellular protein were immunoblotted for relative levels of a highly inducible heat shock protein (Hsp72).
Immortalized mouse embryo fibroblasts derived from homozygous Hsf1 knockout mice or their wild type littermates were exposed overnight to equitoxic concentrations of 1 or the known heat shock-inducing Hsp90 inhibitor gendanamycin. Whole cell lysates were prepared in non-ionic detergent buffer and immunoblotted for relative levels of Hsp72, a highly inducible member of the Hsp70 family of molecular chaperones, using monoclonal antibody C92F3A-5 (StressMarq Biosciences, Victoria, BC). Reactivity was detected using peroxidase-conjugated secondary antibody and chemiluminescent detection. To evaluate the relative ability of compounds to induce a heat shock response at the transcriptional level, a reporter cell line was used as previously described (Turbyville, et al., J. Nat. Prod. (2006) 69: 178-184, incorporated herein by reference). […]

Primary human astrocytes = assay: Gene expression profiling of astrocytes (Agilent whole genome arrays); format: cell-based; conditions: 1 μM, 6 hours
Procedure: Primary human astrocytes were exposed to WA (1 μM) or an equal volume of DMSO solvent for 6 hours. RNA was isolated by phenol-chloroform extraction, reverse transcribed, labeled and hybridized to Agilent dual-color human whole genome arrays followed by standard analysis for relative mRNA levels.

[4] = test system: PC12 cells expressing HttQ103; assay: PC12 cell culture model of Huntington's disease (HttQ103), MTT

Q: `CC1=C(CO)C(=O)OC([C@@H](C)C2CCC3C4C[C@H]5O[C@]56[C@@H](O)C=CC(=O)[C@]6(C)C4CC[C@@]32C)C1` (stereo partly shown) [Withaferin A] was tested. Which “induction of F-actin aggregation” value (WI-38 fibroblasts) did it give?
A: Its value is “induced F-actin aggregation”.

Q: And the “inhibition of tumor cell migration and invasion, prostate cancer cells” value [1]?
A: Its value is “inhibit tumor cell migration and invasion”.

Q: And the “inhibition of tumor cell migration and invasion, Ewing's sarcoma cells” value [2]?
A: Its value is “inhibit tumor cell migration and invasion”.

Q: What about the “inhibition of endothelial cell network formation” value [3] of the same compound?
A: Its value is “disrupts the endothelial cell network”.

Q: And the “inhibition of tumor vascularization (vascular density)” value (CHP-100 tumor xenografts)?
A: Its value is “inhibits tumor vascularization”.

Q: And the “HSF1 dependence of heat shock protein (Hsp72) induction” value (Hsp72)?
A: Its value is “requires Heat Shock Factor 1 (HSF1)”.

Q: What about the “anti-oxidant defense response in astrocytes” value (Primary human astrocytes) of the same compound?
A: Its value is “triggers a robust anti-oxidant defense response”.

Q: And the “transcriptional heat shock response in astrocytes” value (Primary human astrocytes)?
A: The value was “induction of an adaptive transcriptional response that includes classic elements of the heat shock response”.

Q: What about the “concentrations that did not significantly impair MTT reduction by PC12 cells” value ([4]; data not shown) of the same compound?
A: The value was “up to 10 μM”.

Q: What about the “rescue of HttQ103 toxicity in PC12 cells” value ([4]; tebufenozide-induced, 48 hour, MTT, FIG. 15) of the same compound?
A: The value was “a low nanomolar concentration of WA effectively rescued toxicity”.
